# Data from PubChem BioAssay AID463173 (ICCB-Longwood Screening Facility, Harvard Medical School, 2010).
# About 1,700 (3.3%) of roughly 52,000 compounds were called active. Rule as the data show it: active = survival mostly below about 52% (no sharp cut-off); inactive = mostly above about 56%. This is one part of the list.
# System: Wild type
# Assay: S. aureus survival, RN4220 and DeltatarO strains – OD600, teichoic acid synthesis inhibitors, primary screen (AID 463173)
# Conditions: S. aureus RN4220 wild type/DeltatarO growth, OD600, 18 h, active compounds read low, screened at 18.75 µg/mL (by protocol)
row,SMILES,survival
1,Cc1ccc(NC(=O)C2CCN(c3nc4ccccc4[nH]3)CC2)cc1Cl,inactive: 75%
2,NC(=O)c1cc(Cl)nc2ccccc12,inactive: 109%
3,O=C(O)C1CCCN1C(=O)/C=C/c1ccco1 (stereo not given),inactive: 100%
4,O=c1[nH]c2ccccc2c(O)c1C1=NS(=O)(=O)c2ccccc2N1,inactive: 113%
5,O=C(NC1(C(F)(F)F)NC(=O)N(CCc2ccccc2)C1=O)c1ccccc1F (stereo not given),inactive: 80%
6,COc1cccc(CSc2nc3cc(OC)c(OC)cc3c3nc(CCn4nc(C)cc4C)nn23)c1,inactive: 90%
7,CCOc1ccc2nc(N(Cc3cccnc3)C(=O)c3ccc4c(c3)OCCO4)sc2c1,inactive: 72%
8,COC(=O)c1cc2sc(C)cc2n1Cc1ccc(F)cc1Cl,inactive: 65%
9,Cc1ccc(NC(=O)CCc2c(C)nn(-c3ccc(N4CCCCC4)nn3)c2C)cc1F,inactive: 146%
10,Nc1nc(NC(=S)Nc2ccccc2)cc(=O)[nH]1,inactive: 103%
11,COc1ccccc1CNC(=O)Cn1c(=O)ccc2cc(S(=O)(=O)N3CCC(C)CC3)ccc21,inactive: 82%
12,O=S(=O)(c1ccc(Cl)cc1)c1nc(-c2ccccc2Br)oc1N1CCOCC1,inactive: 75%
13,COC(=O)c1c(C)oc2c1cc(NS(=O)(=O)c1c(C)cc(C)cc1C)c1ccccc12,active: 25%
14,Cc1ccc(CCNC(=O)c2nnc(Cc3cccc(F)c3)o2)cc1,inactive: 88%
15,O=c1n(Cc2ccc(F)cc2Cl)c2ccccc2c2nc(-c3ccccc3)nn12,inactive: 140%
16,COc1ccc2c(c1)CCc1c(C(=O)Nc3c(C)nn(Cc4ccccc4Cl)c3C)noc1-2,inactive: 47%
17,CCCCN(CC)CCCNC(=O)c1cn(CC(C)C)c(=O)c2c1c1ccccc1n2C,inactive: 91%
18,Cn1c(=O)c2c(nc(NCCc3ccccc3)n2Cc2cccc(Br)c2)n(C)c1=O,inactive: 73%
19,CC(C)Oc1ccc(C(=O)Nc2ccc3oc(-c4ccncc4)nc3c2)cc1,inactive: 132%
20,COc1ccc(S(=O)(=O)NCC(c2cccs2)S(=O)(=O)c2ccc(C)cc2)cc1F (stereo not given),inactive: 73%
21,Cc1[nH]c2ccc(F)cc2c1CCNC(=O)c1cc2cc(Cl)ccc2oc1=O,inactive: 83%
22,CC1Cc2ccccc2N1S(=O)(=O)c1nnc(NC(=O)c2ccccc2Br)s1 (stereo not given),inactive: 36%
23,COc1ccc(-c2cn3nc(N4CCCC(C(=O)Nc5ccc(Cl)cc5C)C4)sc3n2)cc1 (stereo not given),inactive: 77%

row,SMILES,survival
1,COc1cc(NC(=O)C(NC(=O)C2CCC(C)CC2)C(C)C)cc(OC)c1OC (stereo not given),inactive: 92%
2,COCCn1c(CNC(=O)c2cc([N+](=O)[O-])ccc2Cl)nc2cccnc21,inactive: 72%
3,COc1ccc2nc(SCc3nnc(-c4ccccc4)o3)c(C#N)cc2c1,inactive: 111%
4,COc1ccc(Cl)cc1NS(=O)(=O)c1c(C)nc2scc(C)n2c1=O,inactive: 89%
5,COc1ccc(C(=O)Nc2onc3c2CCCC3)cc1,inactive: 75%
6,COCCCn1c(=N)c(C(=O)NC2CCCCC2)cc2c(=O)n3ccccc3nc21,inactive: 78%
7,COc1ccc(NC(=O)Cn2cnc3c(nc4n3CCCCC4)c2=O)c(OC)c1,inactive: 82%
8,Cc1nnc(NC(=O)C(C)N2CCCC2)s1 (stereo not given),inactive: 103%
9,CC(C)(C)c1nc(NCC2CCCO2)c2nnn(Cc3ccccc3Cl)c2n1 (stereo not given),inactive: 119%
10,Cc1c(CNC2CCCCCC2)c(C(=O)O)c(C)n1Cc1c(F)cccc1Cl,inactive: 86%
11,CCOC(=O)c1ccccc1NC(=O)Cc1c(C(=O)O)c(C)cn1C,active: -1%
12,CCOC(=O)c1ccc(N2C(=O)c3n[nH]c(C)c3C2c2ccc(O)c(OC)c2)cc1 (stereo not given),inactive: 73%
13,COc1ccc(N2CCN(C(=O)Cn3cnc4sc(C)c(S(=O)(=O)N5CCC(C)CC5)c4c3=O)CC2)cc1,inactive: 152%
14,Cc1cccc(CS(=O)(=O)CC2Nc3ccc(C(=O)NCc4ccccc4)cc3NC2=O)c1 (stereo not given),inactive: 71%
15,Cc1ccc(-n2ncc(C(=O)N3CCN(c4ccccn4)CC3)c2C2CCN(C(=O)OC(C)(C)C)CC2)cc1C,inactive: 59%
16,Cc1cc(=O)oc2c3c(ccc12)OCN(Cc1ccccc1Cl)C3,inactive: 83%
17,CCOC(=O)c1nc(Nc2ccc(OC)cc2)c2ccccc2n1,inactive: 143%
18,Nc1ccc2nc(SCCOc3ccccc3)sc2c1,inactive: 108%
19,O=S(=O)(NCc1ccc(F)cc1)c1ccc2[nH]c3c(c2c1)CCCCC3,inactive: 55%
20,Cc1ccccc1Nc1c(-c2cccc(O)c2)nc2ccc(Br)cn12,inactive: 75%
21,CC(C)CCNC(=O)c1ccc(Cn2c(=O)c3cccn3c3cccnc32)cc1,inactive: 87%
22,Cc1cccc(Nc2nc(Nc3cccc(C)c3)nc(N3CCOCC3)n2)c1,inactive: 31%
